# Experimental data: patent US4975450A, “Antidiarrheal” (Slovenska Akademia Vied, priority 1987, dated 1990)
# System: Drosophila melanogaster
# Assay: detection of recessive lethal mutations
# Details: 2.5×10^-5 to 2.5×10^-3 M/disc
compound,measurement,value
"CCCCCOc1cccc(NC(=O)O[C@@H]2CCCC[C@H]2N2CCCC2)c1 (relative stereo) [substance of the formula, (±)-trans-2(1-pyrrolidinyl) cyclohexylester of 3-(n)-pentyloxycarbanilic acid]","mutagenous effects, recessive lethal mutations",no mutagenous effects
